In all, about 150,000 compounds went through this assay and about 540 (0.36%) showed an effect of 50% or more. This is one part of the list.

In the assay the test system is Plasmodium falciparum. Put plainly: Primary screen in NF54 nanoGlo assay, in single point, at 2uM, 72h; a lower Z score goes with more inhibition. The class given is functional, Erythrocyte. The conditions noted are these: timepoint 72 hour.
Take `Cc1[nH]ncc1C(=O)NCc1ccccc1CN1C(=O)NC2(CCCCC2)C1=O`: the % Inhibition – broadly, the change of the read-out against control, counted positive when it falls – is reported as -1% and the Z score was 0.19.
For `CN(CCCn1cccn1)C(=O)[C@@]12CC[C@@](C)([C@H](O)C1)C2(C)C`, in that order: -1% and 0.15.
The like results for `COc1ccccc1-c1cc(C(F)F)n2ncc(C(=O)N3CCN(c4ccc(F)cc4)CC3)c2n1` were, in that order, 0% and 0.06.
Take `COC[C@H]1CCCN1C(=O)c1cc(C)nc2cc(Cl)ccc12`: the “% Inhibition” value is -5% and the Z score is listed as 0.57.
For `CC(Oc1ccccc1)C(=O)NC1CCCn2ncnc21` (stereo not given), in that order: 1% and -0.11.
In the case of `CC1CCCCC1NC(=O)c1cccc(S(=O)(=O)NCc2cccs2)c1` (stereo not given), the “% Inhibition” value is given as -1% and the Z score turned out to be 0.1.
Consider `Cc1cc(C)nc(N2CCN(C(=O)c3nnn(-c4ccccc4Cl)c3C)CC2)n1`, for which the “% Inhibition” value is on record as -10% and the Z score amounted to 1.7.
As for `Cc1ccc(Cn2ccn3nc(-c4ccc5c(c4)OCO5)cc3c2=O)c(C)c1`, the “% Inhibition” value is -6% and the Z score is 0.92.
The like results for `O=S(=O)(Nc1ccc2c(c1)OC1(CCCCC1)O2)c1ccc(F)cc1F` were, in that order, -12% and 1.13.
`Cc1nnsc1C(=O)N1CCC=C(F)C1`: the “% Inhibition” value is recorded as 0% and the Z score is recorded as -0.02.
Turning to `O=C(O)Cn1ccc([C@H]2CCCN(C(=O)c3cccc4ccccc34)C2)n1`, the “% Inhibition” value is -10% and the Z score was determined as 1.27.
Consider `CCOC(=O)NCCc1ccc(F)cc1`, for which the “% Inhibition” value is on record as -16% and the Z score was 2.19.
As for `CCOc1ccc2c(c1)C=C(C(=O)NCc1ccccn1)CO2`, the “% Inhibition” value is on record as -3% and the Z score was 0.54.
As for `CCC(=O)Nc1nnc(-c2ccncc2)[nH]1`, the “% Inhibition” value was 0% and the Z score amounted to 0.
Take `NC(=O)COc1ccccc1CN(Cc1ccc(F)cc1)C[C@H]1CCCO1`: the “% Inhibition” value is on record as -6% and the Z score is reported as 0.89.
For `COC(=O)[C@@]1(C)N[C@@H](c2ccc(OC)cc2F)[C@H]2C(=O)N(C)C(=O)[C@H]21`, the “% Inhibition” value is on record as -18% and the Z score amounted to 3.36.
Turning to `CC[C@H](NC(=O)CCCn1cccn1)c1nc(C)c(C)s1`, the “% Inhibition” value is 1% and the Z score is reported as -0.16.
With `CC(C)CCc1cc(NC(=O)c2ccnc(N3CCCC3)n2)[nH]n1`, the “% Inhibition” value turned out to be 11% and the Z score is recorded as -1.14.
The like results for `O=C(CC[C@H]1CCCCO1)NCC1(N2CCOCC2)CCCCC1` were, in that order, -8% and 1.07.
Consider `O=C(NC[C@H]1CCCO1)c1[nH]nnc1-c1ccc(F)cc1`, for which the “% Inhibition” value is given as -9% and the Z score is on record as 1.64.
`COc1ccc(CC2C(O)C(Cc3ccc(OC)cc3)C3CCC2N3C)cc1` (stereo not given): the “% Inhibition” value was determined as 38% and the Z score is given as -4.91.
As for `CCc1ncc(NC(=O)c2coc(-c3ccccc3)n2)cn1`, the “% Inhibition” value is given as -21% and the Z score stood at 2.66.
Consider `Cc1cc(CNC(=O)[C@H](C)N2CCCC2)ccn1`, for which the “% Inhibition” value is -10% and the Z score turned out to be 1.37.
As for `CCC(C)CC(C)NC(=O)NCc1ccn(C(C)C)n1` (stereo not given), the “% Inhibition” value is on record as -4% and the Z score is recorded as 0.78.
In the case of `COc1cc2c(cc1OC)[C@@H](Nc1ncc(C(=O)O)cn1)CCCC2`, the “% Inhibition” value is 1% and the Z score is given as -0.2.
`CNC(=O)[C@@H]1C[C@@H](n2cc(C(C)(C)NC(=O)c3ccccc3Cl)nn2)CN1`: the “% Inhibition” value is on record as 6% and the Z score is recorded as -1.18.
For `CC(C)(C)[C@H]1CCc2c(sc3nc(-c4ccc(Cl)cc4)cn23)C1`, in that order: 8% and -1.02.
For `C=CCN(Cc1cccnc1)Cc1[nH]cnc1C`, the “% Inhibition” value is given as -6% and the Z score came out at 1.06.
On to `O=C(O)[C@H]1CCCN1Cc1csc(-c2ccsc2)n1`, for which the “% Inhibition” value is -10% and the Z score turned out to be 1.34.
Take `Cc1cc(C)c2oc(N3C[C@H](O)C4(CC4)C3)nc2c1`: the “% Inhibition” value is recorded as -4% and the Z score turned out to be 0.75.
Regarding `Cc1ccc(C)c(NC(=O)NC[C@H](C)C#N)c1`, the “% Inhibition” value was -1% and the Z score was 0.07.
Take `CCN1C(=O)c2cc(S(=O)(=O)NCc3cccc(Cl)c3)ccc2Oc2cccnc21`: the “% Inhibition” value was -5% and the Z score was 0.86.
Turning to `O=C(Nc1ccccc1)N1CCCC[C@@H]1CCN1CCCCCC1`, the “% Inhibition” value is recorded as -14% and the Z score was determined as 1.45.
Turning to `C[C@H]1CN(C(=O)Nc2ccc(F)cc2)C[C@@H]1c1nc(-c2ccccc2)no1`, the “% Inhibition” value is recorded as -4% and the Z score amounted to 0.42.
The like results for `CC(=O)N1CCN(C(=O)c2ccc(C)nc2C2CCN(Cc3ccc(N(C)C)cc3)CC2)CC1` were, in that order, -14% and 1.78.
Take `O=C(Cc1cnc2ccccc2c1)N1CCO[C@H](c2nccs2)C1`: the “% Inhibition” value is -6% and the Z score is 0.87.
For `Cc1ccc(Br)cc1CNCc1cncn1C`, in that order: -11% and 1.1.
The like results for `CC(C)Cc1ccc([C@H](C)C(=O)N[C@@H](C)C(N)=O)cc1` were, in that order, -6% and 1.15.
In the case of `Cn1ccc(NC(=O)C(=O)N(Cc2ccccc2F)C2CCC2)n1`, the “% Inhibition” value is recorded as -4% and the Z score is given as 0.58.
With `Cc1cc(C(=O)N2CCN(CC(C)C)[C@@H]3CS(=O)(=O)C[C@@H]32)c(C)o1`, the “% Inhibition” value is reported as -9% and the Z score came out at 1.1.
Take `CC[C@H](C)[C@H](NC(=O)c1ccccc1)C(=O)O`: the “% Inhibition” value was -18% and the Z score came out at 2.75.
The like results for `COCC[C@H]1CN(Cc2nc(C)c(C)n2C)CCO1` were, in that order, -15% and 1.59.
Consider `O=C(Nc1ccccc1Oc1ccccc1)N1CCN2CCC[C@H]2C1`, for which the “% Inhibition” value is -9% and the Z score came to 1.62.
For `CC1=CCN(S(=O)(=O)c2cccc(C(=O)NCCn3cccn3)c2)CC1`, in that order: -4% and 0.58.
For `Cc1ncoc1C(=O)N1CC[C@@]2(CCCN(Cc3ccccc3F)C2)C1`, the “% Inhibition” value is on record as 5% and the Z score is -1.
Regarding `Cn1cccc(C(=O)Nc2nc3c(o2)CCCC3)c1=O`, the “% Inhibition” value is -14% and the Z score is listed as 1.91.
For `Cc1cccc(C)c1OC[C@@H](O)CNC(=O)c1ccco1`, in that order: -16% and 1.85.
Turning to `CCn1ncnc1CN1CC[C@H](CC2CCCC2)C1`, the “% Inhibition” value turned out to be 19% and the Z score is listed as -2.05.
In the case of `O=C(OCc1ccccn1)c1ccc(O)c(Cl)c1`, the “% Inhibition” value was -1% and the Z score was determined as 0.1.
The like results for `Cc1cc(C#N)nc(N2CCN(CC(F)(F)F)C[C@H](C)C2)n1` were, in that order, -5% and 0.63.
For `Cc1cc2c(N(C)Cc3ccc4c(c3)OCO4)ncnc2s1`, in that order: 0% and 0.05.
For `CC(=O)NCC(=O)N1CCC(OC(C)(C)C)CC1`, the “% Inhibition” value was determined as 30% and the Z score is on record as -4.4.
`CCc1ccc([C@@H]2CCCCN2C(=O)c2conc2COC)o1`: the “% Inhibition” value is given as 6% and the Z score was -0.78.
Regarding `COCCc1noc([C@H]2CC(=O)N(C(C)C)C2)n1`, the “% Inhibition” value worked out at 0% and the Z score stood at 0.
Take `Cc1ccsc1CN(Cc1ccc(F)cc1)C(=O)CN(C(C)C)S(=O)(=O)c1cc(Cl)ccc1Cl`: the “% Inhibition” value is listed as -7% and the Z score was determined as 0.71.
Consider `O=C(NCCc1nnc2ccccn12)c1cc(Br)c[nH]1`, for which the “% Inhibition” value is on record as -14% and the Z score came out at 2.36.
`COc1ccc2c(c1)CCc1c-2n[nH]c1-c1ccc(C(=O)NCc2cccc(Cl)c2)cc1`: the “% Inhibition” value is on record as -3% and the Z score turned out to be 0.39.
Regarding `Cc1ccc2nc(NCc3ccco3)c(-c3noc(C)n3)cc2c1`, the “% Inhibition” value was -6% and the Z score worked out at 0.69.
As for `Cc1cc2c(cc1S(=O)(=O)N1CCC(C)CC1)OCC(=O)N2Cc1noc(C2CC2)n1`, the “% Inhibition” value was -6% and the Z score is reported as 0.71.
With `N#Cc1ccccc1CN(CC(=O)N1CCCC1)C[C@H]1CCCO1`, the “% Inhibition” value is listed as -4% and the Z score is 0.4.
For `CC[C@H](C)NC(=O)CN1CCN(C(=O)c2cccc3[nH]ccc23)CC1`, the “% Inhibition” value worked out at 1% and the Z score is given as -0.12.
For the compound `O=C(O)[C@H]1CN(c2cc(C3CC3)ncn2)CC12CCCCC2`, the “% Inhibition” value is -7% and the Z score came to 1.06.
In the case of `COCCN1CCC(CN(Cc2ccncc2)Cc2nc3ccc(F)cc3[nH]2)CC1`, the “% Inhibition” value amounted to 0% and the Z score is 0.04.
For `CC1CCN(C(=O)c2nc(CC(=O)NC3CC3)no2)CC1`, the “% Inhibition” value is on record as -16% and the Z score is 2.36.
Regarding `CC(C)Cc1cc(CNS(=O)(=O)c2cccc3nn(C)nc23)on1`, the “% Inhibition” value is on record as -10% and the Z score came out at 1.06.
On to `COCCCNCc1ccccc1OC`, for which the “% Inhibition” value was -3% and the Z score came to 0.62.
For the compound `Cc1cccc(NC(=O)C2(C#N)C(c3ccccc3)C2(C)C(=O)c2ccccc2)c1` (stereo not given), the “% Inhibition” value amounted to 1% and the Z score is on record as -0.17.
With `CN(C)CCN(Cc1ccccc1)C(=O)c1cc2n(n1)CCN(Cc1ccc(F)cc1)C2=O`, the “% Inhibition” value is given as 0% and the Z score is reported as -0.02.
On to `Cc1ccc([C@H](C)NC(=O)CC2CCN(C(C)C)CC2)cn1`, for which the “% Inhibition” value was -16% and the Z score is given as 1.46.
Turning to `COc1ccc(NC(=O)CCN(CC(C)C)c2nc(-c3ccccc3)nc3cc(Cl)ccc23)cc1`, the “% Inhibition” value was -15% and the Z score stood at 1.78.
The like results for `CCNC(=O)[C@@]1(OCc2ccccc2F)CC(OCc2ccc(F)cc2F)[C@@H]2OC(C)(C)O[C@@H]2C1` (stereo not given in full) were, in that order, -4% and 0.57.
Turning to `O=C(C1CCCC1)N1CC(S(=O)(=O)N2CCC(n3cccn3)CC2)C1`, the “% Inhibition” value is listed as -7% and the Z score was 0.62.
With `Cc1n[nH]c(C)c1CN1CCN(C(=O)c2ccccc2OC(F)F)CC1`, the “% Inhibition” value stood at 8% and the Z score is -1.54.
For `Cc1ccc(CNC(=O)Nc2cccc(-c3nnco3)c2)cc1`, in that order: -23% and 2.29.
For the compound `O=C(Nc1ccnn1C1CCC1)c1ccc(-c2cn[nH]c2)cn1`, the “% Inhibition” value is reported as -10% and the Z score is given as 1.42.
Consider `CCCCn1nc(C)cc1NC(=O)[C@@H]1CC(=O)Nc2c(OC)cccc21`, for which the “% Inhibition” value is reported as -10% and the Z score was found to be 0.91.
Regarding `COCCn1nc2n(c1=O)CCC1(CC2)CCN(C(=O)CCc2c(C)nn(C)c2C)CC1`, the “% Inhibition” value was -3% and the Z score turned out to be 0.49.
Turning to `CCc1nc2cc(-c3ccncc3)cnc2[nH]1`, the “% Inhibition” value is reported as -8% and the Z score is given as 1.46.
On to `CC(C)C(=O)NCCc1csc(C2CCN(C(=O)c3ccco3)CC2)n1`, for which the “% Inhibition” value is listed as -11% and the Z score is on record as 1.37.
The like results for `O=C(CCc1ccccc1)N1CCCN(c2nc(C3CC3)no2)CC1` were, in that order, -2% and 0.17.
Consider `COc1cnccc1-c1noc(CCCc2ncc(C)o2)n1`, for which the “% Inhibition” value is recorded as -10% and the Z score turned out to be 1.28.
With `CCc1nccn1CCNC(=O)Nc1cccc2nn(C)nc12`, the “% Inhibition” value is recorded as 2% and the Z score was -0.31.
For `c1csc(-c2cc(CN3CCCC[C@@H]3Cn3cncn3)no2)c1`, in that order: -9% and 1.35.
Turning to `CC(Cn1cccn1)NC(=O)C1CCCO1` (stereo not given), the “% Inhibition” value is reported as -16% and the Z score is on record as 1.38.
Turning to `O=C(NC1CCN(c2ccccc2C(=O)N2CCCCC2)CC1)c1ccco1`, the “% Inhibition” value came out at 3% and the Z score is -0.59.
